From PubChem BioAssay AID1768 (National Center for Advancing Translational Sciences (NCATS), 2009)
Out of some 270,000 compounds screened, about 620 (0.23%) were called active. Inconclusive results, whose numbers are uncertain, are shown with a selection of clear calls. Calls come from the whole dose curve; as a rule, active = well fitted inhibition curve with a large enough effect in the polarisation, with a control signal flat (not every such curve was filed as active); inconclusive = small, poorly fitted or top-dose-only effect, or effect the other way, or a change in a side signal; inactive = no such curve, though single readings can be large or run the other way; the % refers to the polarisation. Potencies beside an inconclusive call are fits to weak or partial responses and may not hold up. “Side channel” marks fits to a control or component signal instead of the main read-out.

molecular target: Menin (Homo sapiens) (UniProt O00255); assay: qHTS Assay for Inhibitors Targeting the Menin-MLL Interaction in MLL Related Leukemias: Competition With Texas Red Labeled MLL-derived Mutant Peptide; conditions: fluorescence polarization; series mostly up to 61.6 µM
Sequence of UniProt O00255 (O00255 whole entry, looked up): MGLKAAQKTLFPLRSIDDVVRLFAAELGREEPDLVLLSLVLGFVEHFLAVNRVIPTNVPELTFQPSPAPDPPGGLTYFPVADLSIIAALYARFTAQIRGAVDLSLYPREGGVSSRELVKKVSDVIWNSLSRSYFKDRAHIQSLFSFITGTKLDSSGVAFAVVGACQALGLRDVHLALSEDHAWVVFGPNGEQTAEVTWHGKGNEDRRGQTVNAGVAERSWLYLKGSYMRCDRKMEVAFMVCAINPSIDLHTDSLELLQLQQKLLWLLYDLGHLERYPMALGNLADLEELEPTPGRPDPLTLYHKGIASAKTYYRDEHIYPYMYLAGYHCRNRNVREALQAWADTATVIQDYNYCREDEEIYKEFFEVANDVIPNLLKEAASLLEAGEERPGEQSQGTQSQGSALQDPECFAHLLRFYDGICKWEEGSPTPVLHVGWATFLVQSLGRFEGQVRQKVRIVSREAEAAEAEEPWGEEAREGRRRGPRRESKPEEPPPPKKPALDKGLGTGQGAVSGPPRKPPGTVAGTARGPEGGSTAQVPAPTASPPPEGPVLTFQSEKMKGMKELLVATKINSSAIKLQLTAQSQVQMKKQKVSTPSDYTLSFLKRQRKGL
Potency is the fitted concentration of half-maximal effect; tags give direction and shape of the fitted curve or compound fluorescence and quenching.

| SMILES | Potency |
| --- | --- |
| CCOc1ccc(CCNc2ccc3nnc(-c4ccccc4)n3n2)cc1OCC | inactive |
| CC1(C)CC(=O)c2cnc3nc4ccccc4n3c2C1 | inconclusive: 39.8 µM [inhibitor, single point] |
| CCOc1cc(/C=C2/C(=O)NN(c3cccc(Cl)c3)C2=O)ccc1O | inconclusive: 28.2 µM [quencher, side channel, single point] |
| O=C(NNc1nc(-c2ccc(F)cc2)cs1)c1ccccc1 | inconclusive: 17.8 µM [quencher, side channel, partial curve] |
| Clc1ccc(COn2c(-c3ccc(Cl)cc3Cl)nc3ncccc32)cc1 | inconclusive: 3.55 µM [fluorescent, side channel, partial curve, poor fit] |
| CCn1c(=S)sc2c(=O)n(CC(=O)Nc3cccc(OC)c3)c(C)nc21 | inconclusive: 28.2 µM [quencher, side channel, single point] |
| C[C@H]1C(c2ccc(F)cc2)=NN(c2ccccc2)[C@@H]1CO | inconclusive: 31.6 µM [quencher, side channel, partial curve] |
| CCN(CC)c1cnn(C/C(=N\OC)c2ccc(Cl)cc2)c(=O)c1Br | inconclusive: 14.1 µM [fluorescent, side channel, partial curve] |
| CSc1ccc(C(=S)N2CCCCCC2)cc1 | inconclusive: 2.24 µM [quencher, side channel, full curve] |
| Cc1ccc(C)c(N2CCN(C(=O)CSc3ccsc3[N+](=O)[O-])CC2)c1 | inconclusive: 28.2 µM [quencher, side channel, single point] |
| COc1ccc(CN(CC2CCC(C(=O)O)CC2)C(=S)Nc2cc(Cl)ccc2OC)cc1 (stereo unspecified) | inconclusive: 14.1 µM [quencher, side channel, partial curve] |
| Nc1nc(-c2cc(-c3ccccc3)no2)cs1 | inconclusive: 25.1 µM [quencher, side channel, single point] |
| Cc1ccc(S(=O)(=O)N/N=C/c2ccc(OC3CSC3)cc2)cc1 | inconclusive: 28.2 µM [quencher, side channel, single point] |
| CN(C)S(=O)(=O)c1ccc(NC(=O)COC(=O)c2n[nH]c3ccccc23)cc1 | inconclusive: 28.2 µM [inhibitor, single point] |
| Cn1cc(C(=O)NCc2ccc(Cl)cc2)c(=O)c2cc(S(=O)(=O)N3CCOCC3)ccc21 | inconclusive: 17.8 µM [quencher, side channel, partial curve] |
| Cc1ccc2cc(C3C(C#N)=C(N)Oc4c3ccc3cccnc43)c(=O)[nH]c2c1 (stereo unspecified) | inconclusive: 22.4 µM [quencher, side channel, partial curve] |
| CC(C)(C)c1ccc(/C=N/Nc2cccc(C(=O)O)c2)cc1 | inconclusive: 15.8 µM [quencher, side channel, partial curve] |
| Cc1ccc(NC(=O)COc2ccccc2CNC(C)(C)CC(C)(C)C)cc1 | inconclusive: 7.08 µM [inhibitor, partial curve] |
| COc1ccc(C2=NNC(c3cccs3)=Nc3ccc(OC)cc32)cc1 | inconclusive: 39.8 µM [quencher, side channel, single point] |

| SMILES | Potency |
| --- | --- |
| O=C(Nc1cccc(Cl)c1Cl)c1snnc1-c1ccccc1 | inconclusive: 8.91 µM [inhibitor, partial curve, poor fit] |
| CCOc1cc(CNc2ccc(N3CCCC3)cc2)cc(Cl)c1OC | inconclusive: 10 µM [inhibitor, partial curve] |
| CCc1cc(=S)n2c([nH]c3ccccc32)c1C#N | inconclusive: 31.6 µM [quencher, side channel, single point] |
| O=C(O)c1ccc(-c2ccccc2Cl)o1 | inconclusive: 31.6 µM [inhibitor, partial curve] |
| CCN(CCCNC(=O)C1CCCN(S(=O)(=O)c2cnc[nH]2)C1)c1ccccc1 (stereo unspecified) | inconclusive: 39.8 µM [inhibitor, single point] |
| CCCCCC1CCC(c2nnc(SCC(C)=O)o2)CC1 (stereo unspecified) | inconclusive: 10 µM [fluorescent, side channel, partial curve] |
| Cc1cc(NC(=O)CSc2nc3c(cc2C#N)CCC3)no1 | inconclusive: 3.16 µM [inhibitor, single point] |
| COc1ccc(C(NC(=O)C(C)C)c2c(O)ccc3ccccc23)cc1 (stereo unspecified) | inconclusive: 31.6 µM [quencher, side channel, single point] |
| COc1ccc(NC(=S)NC(NC(=O)c2cccc(C)c2)C(Cl)(Cl)Cl)c([N+](=O)[O-])c1 (stereo unspecified) | inconclusive: 11.2 µM [quencher, side channel, partial curve] |
| Cc1ccc(CCNC(=O)C2CCCN(S(=O)(=O)N3CC(C)CC(C)C3)C2)cc1 (stereo unspecified) | inconclusive: 39.8 µM [inhibitor, single point] |
| C1=C(N2CCOCC2)/C(=C/c2nc3ccccc3[nH]2)CC1 | inconclusive: 10 µM [quencher, side channel, partial curve] |
| COc1ccc(CCNC(=O)C2CCCN(Cc3nc(-c4ccccc4C)oc3C)C2)cc1OC (stereo unspecified) | inconclusive: 39.8 µM [inhibitor, single point] |
| CC1CCN(C(=O)CCc2nc3cc(S(=O)(=O)N(C)C)ccc3n2C)CC1 | inconclusive: 2.82 µM [inhibitor, partial curve] |
| O=C(O)COc1ccc2nsnc2c1Cl | inactive |
| CC(C)(C)OC(=O)NCCc1nnc(SCc2ccccc2Cl)o1 | inconclusive: 20 µM [fluorescent, side channel, partial curve] |
| CCOC(=O)c1c(-c2ccc(C)cc2)csc1NC(=S)NC(=O)c1ccccc1 | inconclusive: 35.5 µM [inhibitor, single point] |
| Cc1ccc2nc(C3CCN(S(=O)(=O)c4ccc5ccccc5c4)CC3)[nH]c2c1 | inconclusive: 39.8 µM [inhibitor, single point] |
| Cc1ccc(NC(=S)NNc2ccc([N+](=O)[O-])cc2S(=O)(=O)Nc2ccccc2C(=O)O)cc1C | inconclusive: 12.6 µM [quencher, side channel, partial curve] |
| CCCCCCOc1ccc(N2C(=O)CC(N3CCN(CCN=CC4=C(O)CC(C)(C)CC4=O)CC3)C2=O)cc1 (stereo unspecified) | inconclusive: 14.1 µM [fluorescent, side channel, partial curve] |

| SMILES | Potency |
| --- | --- |
| O=C(NC1CCCCC1)C(c1cccs1)N(CCCN1CCOCC1)C(=O)c1ccc(-c2ccccc2)[nH]1 (stereo unspecified) | inconclusive: 1.41 µM [fluorescent, side channel, full curve] |
| N#C/C(C(=O)c1ccccc1)=C1/CCCN1 | inconclusive: 10 µM [inhibitor, single point] |
| O=C1NC(=S)N/C1=C/c1cc([N+](=O)[O-])ccc1O | inconclusive: 22.4 µM [quencher, side channel, single point] |
| CSc1nsc(SC)c1C(=O)OCC(F)(F)F | inconclusive: 15.8 µM [fluorescent, side channel, partial curve] |
| CN1C(=O)/C(=C\c2ccc(N(C)C)cc2)OC1=S | inconclusive: 39.8 µM [inhibitor, single point] |
| C/C(=N\NC(=O)c1nnn(-c2nonc2N)c1-c1ccccc1)c1ccccc1O | inconclusive: 39.8 µM [inhibitor, single point] |
| CCOc1ccc2nc(-c3ccc(OC)c(OC)c3)cc(C(=O)O)c2c1 | inconclusive: 39.8 µM [inhibitor, partial curve] |
| CC(C)c1ccc(NC(=O)NCc2ccc3c(c2)OCO3)cc1 | inconclusive: 35.5 µM [fluorescent, side channel, single point] |
| O=C1C2Sc3[nH]c(=O)sc3C(c3ccccc3)C2C(=O)N1c1ccccc1 (stereo unspecified) | inconclusive: 20 µM [quencher, side channel, partial curve] |
| COc1ccc2c(c1)Cc1sc(NC(=O)c3ccco3)nc1-2 | inconclusive: 35.5 µM [quencher, side channel, single point] |
| COC(=O)c1ccc2nc(Nc3nc4c(F)cc(F)cc4s3)sc2c1 | inconclusive: 3.98 µM [quencher, side channel, partial curve] |
| O=C(Nc1ccc(Nc2ccccc2)cc1)c1ccc(Cl)c([N+](=O)[O-])c1 | inconclusive: 10 µM [quencher, side channel, partial curve] |
| O=C(COc1ccccc1[N+](=O)[O-])Nc1cc(Cl)ccc1C(=O)O | inconclusive: 28.2 µM [quencher, side channel, single point] |
| COc1ccc(CNCC(O)COc2ccc(C(C)(C)c3ccccc3)cc2)cc1 (stereo unspecified) | inconclusive: 39.8 µM [inhibitor, single point] |
| Cc1ccc(OCC(=O)Nc2ccc(NC(=O)c3cccs3)cc2)c(C)c1 | inconclusive: 35.5 µM [fluorescent, side channel, single point] |
| CCCCCCCCCCCCC(=O)N1CCCC[C@H]1CNC(=O)[C@@H](N)CCCCN | inconclusive: 3.55 µM [fluorescent, side channel, full curve, poor fit] |
| O=C1N/C(=N\N=C\c2cccs2)SC1Cc1ccc(Cl)cc1 (stereo unspecified) | inconclusive: 11.2 µM [quencher, side channel, partial curve] |
| O=C(NC1CCCCC1)C(c1ccccc1F)N(Cc1ccco1)C(=O)c1ccccn1 (stereo unspecified) | inactive |
